Assay results from PubChem BioAssay AID485297 (National Center for Advancing Translational Sciences (NCATS), 2010).
Where “and” joins values, the source holds several entries; their conditions need not be identical. Equal values may be shown once. The whole screen tested about 320,000 compounds, of which about 9,100 (2.8%) were called active. The shares of active, inactive and inconclusive entries below differ from those in the screen. The call rests on the fitted dose curve; in most records, active means well fitted activation curve with a large enough effect; inconclusive means small, poorly fitted or top-dose-only effect; inactive means no such curve, though single readings can be large or run the other way. A potency beside an inconclusive call is a rough fit, not a confirmed value.

Experiment: qHTS Assay for Rab9 Promoter Activators; further: nearly all actives have a fitted effect of over 60% in size; on activation, negative = inhibition: % of control where 0% means no effect
Conditions: Huh7 Rab9 promoter-luciferase reporter, luminescence, 24 h; series mostly up to 9.22 µM; activation, negative = inhibition: at the top concentration
How it was run: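 Stable Rab9-luc Huh7, 1500 cells/well, 2 h settle; cmpd in DMSO, 24 h, 37 °C/5% CO2; luciferase reagent 10 min RT; luminescence.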
Potency means the concentration at half of the fitted maximal effect; tags describe the fitted curve by direction and shape.

Row | Structure (SMILES) | Potency | activation, negative = inhibition
1 | Cc1cc(=O)n2nc(-c3ccc(C(F)(F)F)cc3)sc2n1 | inconclusive: 3.55 µM [activator, partial curve] | –
2 | COc1ccccc1OCc1csc(NC(=O)c2ccco2)n1 | inconclusive: 3.55 µM [activator, partial curve] | –
3 | CCOc1ccc(S(=O)(=O)N2CCC(C(=O)N3CCc4ccccc4C3)CC2)cc1 | – | inactive: -6.18%
4 | O=C(NCc1ccccc1)c1ccc2c(c1)OCCO2 | inconclusive: 3.55 µM [activator, single point] | –
5 | CC(C)NS(=O)(=O)c1ccc(Br)c(C(=O)OC(C)C(=O)NC2CCCCC2C)c1 (stereo not given) | – | inactive: -3.39%
6 | Cc1cccc2nc(COc3ccc(Cl)c4cccnc34)cn12 | inconclusive: 6.31 µM [activator, single point] | –
7 | CCOC(=O)c1sc(N/N=C/c2ccc(N(C)C)cc2)nc1C | inconclusive: 2.24 µM [activator, partial curve] | –
8 | CCn1cc(Br)c(C(=O)Nc2ccc(F)cc2F)n1 | inconclusive: 3.55 µM [activator, partial curve] | –
9 | CN(C)S(=O)(=O)c1cc(NC(=O)COC(=O)CCSc2ccc(Cl)cc2)ccc1Cl | – | inactive: 3.21%
10 | Brc1ccc(-c2ncc(-c3ccccc3)cn2)cc1 | active: 0.708 µM | –
11 | CN=c1scc(-c2ccccc2Br)n1/N=C/c1ccc[nH]1 | inconclusive: 0.282 µM [activator, partial curve] | –
12 | O=C(NCCSc1ncc(-c2ccc(F)cc2)[nH]1)c1ccc2c(c1)OCO2 | – | inactive: -0.33%
13 | O=C(NCCc1ccc2c(c1)OCCO2)c1ccccn1 | active: 2 µM | –
14 | O=C1[C@H]2[C@@H](C3CC3)N3C(=O)CN(Cc4ccccn4)C(=O)[C@@]3(Cc3ccccc3)[C@H]2C(=O)N1c1ccccc1 | – | inactive: -0.903%
15 | CCC(C)(C)NC(=O)CCCSc1nc2ccccc2s1 | inconclusive: 2.82 µM [activator, partial curve] | –
16 | COC(=O)c1nc(NC(=S)NC(=O)c2cccs2)sc1C | inconclusive: 4.47 µM [activator, partial curve] | –
17 | C=COCCNC(=O)Nc1ccc(Cl)c(Cl)c1 | inconclusive: 3.55 µM [activator, partial curve] | –
18 | O=C(NOCc1ccccc1)c1ccc(Cl)cc1 | active: 0.501 µM | –
19 | Cc1cccc(NC(=O)c2cc(=O)c3ccccc3o2)n1 | inconclusive: 3.16 µM [activator, partial curve] | –
20 | CC(=O)c1ccc(N(C(=O)Cc2c[nH]c3ccccc23)C(C(=O)NC2CCCCC2)c2cccs2)cc1 (stereo not given) | inconclusive: 3.16 µM [activator, single point] | –
21 | O=C(Nc1ccccc1F)c1ccc2snnc2c1 | inconclusive: 3.55 µM [activator, partial curve] | –
22 | Fc1ccc(Cc2nnc(-c3cccs3)o2)cc1 | inconclusive: 2.51 µM [activator, partial curve] | –
23 | CCn1c2ccccc2c2cc(NC(=O)c3cc(OC)c(OC)c(OC)c3)ccc21 | – | inactive: -22.8%
24 | Cc1ccc(NC(=O)c2ccc3nc[nH]c3c2)c(O)c1 | inconclusive: 3.16 µM [activator, single point] | –
25 | CCOC(=O)Cc1csc(NC(=O)c2ccncc2)n1 | – | inactive: -2.68%

Row | Structure (SMILES) | Potency | activation, negative = inhibition
26 | CCCCNC(=O)c1cc2ccccc2s1 | inconclusive: 3.55 µM [activator, partial curve] | –
27 | Cc1ccc(CN=C(N)Nc2nc(C)cc(C)n2)cc1 | – | inactive: -30.9%
28 | Clc1ccc2nc(-c3ccc(Br)s3)cn2c1 | inconclusive: 5.62 µM [activator, single point] | –
29 | C=CCc1c(C)nc2cc(-c3ccc(C)cc3)[nH]n2c1=O | inconclusive: 2.82 µM [activator, single point] | –
30 | CCOc1nc(-c2ccc(Cl)cc2)nc2ccccc12 | – | inactive: -0.161%
31 | Nc1nnc(SCC(=O)Nc2ccc3c(c2)OCCO3)s1 | – | inactive: 3.02%
32 | Cc1cccc2c(=O)c(Br)c(C)n(Cc3ccccc3)c12 | – | inactive: 0.0481%
33 | Cc1cc(C(=O)Cn2nc(C(=O)O)c3ccccc3c2=O)c(C)n1CC(F)(F)F | inconclusive: 3.16 µM [activator, partial curve] | –
34 | O=c1c2c3c(sc2nc2sc(CN4CCOCC4)cn12)CCCC3 | inconclusive: 5.01 µM [activator, single point] | –
35 | Cc1ccccc1CSc1nnc(-c2ccccn2)n1C | inconclusive: 3.55 µM [activator, partial curve] | –
36 | O=C(O)CCCCc1nc2ccccc2s1 | – | inactive: -6.84%
37 | NNC(=O)c1ccc(Cn2cc(Cl)cn2)o1 | – | inactive: -0.923%
38 | Cc1ccc(C2/C(=C(\O)c3cnn(-c4ccccc4)c3C)C(=O)C(=O)N2CCN(C)C)o1 (stereo not given) | inconclusive: 3.55 µM [activator, single point] | –
39 | Cc1cccc(COc2ccc(/C=N/NC(=O)c3nnn(-c4nonc4N)c3CN3CCCCC3)cc2)c1 | – | inactive: 19%
40 | Cc1nn(-c2ccccc2)c(/N=C/c2ccc(O)cc2)c1-c1ccccc1 | inconclusive: 2.51 µM [activator, partial curve] | –
41 | O=C(N/N=C/c1cccc([N+](=O)[O-])c1)c1c[nH]c2ccccc12 | inconclusive: 2.51 µM [activator, partial curve] | –
42 | COc1ccc(C)cc1N(C(=O)c1ccco1)C(C(=O)NC1CCCC1)c1cc(OC)c(OC)c(OC)c1 (stereo not given) | – | inactive: 3.01%
43 | Cc1cccc(Cn2c(O)c(N=NC(=S)Nc3ccccc3F)c3ccccc32)c1 | – | inactive: -4.08%
44 | COc1ccc(NC2=CC(=O)N(C)C2=O)cc1 | inconclusive: 2.51 µM [activator, partial curve] | –
45 | C=C(C)CSc1nc(N)c2c(C)c(C)sc2n1 | inconclusive: 3.98 µM [activator, single point] | –
46 | O=C(c1cc2ccccc2oc1=O)N(Cc1ccccc1F)C1CCS(=O)(=O)C1 (stereo not given) | inconclusive: 3.16 µM [activator, single point] | –
47 | COc1cccc(-c2noc(-c3ccc(Br)o3)n2)c1 | active: 1.41 µM | –
48 | COc1c(OC(C)=O)ccc(/C=C/c2ccc3ccccc3n2)c1[N+](=O)[O-] | inconclusive: 5.01 µM [activator, single point] | –
49 | O=C(Nc1ccccc1)Nc1ncc([N+](=O)[O-])s1 | inconclusive: 0.224 µM [activator, full curve] | –
50 | c1ccc(-n2ncc3c(NCc4cccnc4)ncnc32)cc1 | inconclusive: 2 µM [activator, partial curve] | –

Row | Structure (SMILES) | Potency | activation, negative = inhibition
51 | Fc1ccc(-c2nnc(CSc3nnc4ccccn34)o2)cc1 | inconclusive: 3.16 µM [activator, single point] | –
52 | C=CCNC(=O)c1ccc(-c2cccc([N+](=O)[O-])c2)o1 | inconclusive: 3.16 µM [activator, partial curve] | –
53 | CCc1ccc(-c2ccc(C(=O)C(F)(F)F)[nH]2)cc1 | active: 1.12 µM | –
54 | C=CCN1N=C(/C=C/c2ccc(OC)cc2)CCC1=O | inconclusive: 3.16 µM [activator, single point] | –
55 | CCCN1CCC(=O)N([C@H](CSc2ccc(C)cc2)CC(C)C)CC1 | inconclusive: 5.62 µM [activator, single point] | –
56 | CC(=O)c1cccc(S(=O)(=O)NCCCN2CCOCC2)c1 | – | inactive: 5.21%
57 | O=C(Nc1ccccc1)Nc1ccccn1 | inconclusive: 2.51 µM [activator, partial curve] and inconclusive: 5.62 µM [activator, single point] | –
58 | CC(C1CC2CCC1C2)n1c(COc2ccccc2F)nnc1SCC(N)=O (stereo not given) | – | inactive: 10.1%
59 | CC(C)CN1C(=O)c2ccc(C(=O)Nc3nccs3)cc2C1=O | inconclusive: 1.78 µM [activator, partial curve] | –
60 | Cc1ccc(NC(=O)O/N=C/c2cccc([N+](=O)[O-])c2)cc1 | – | inactive: 4.71%
61 | O=C(CNS(=O)(=O)c1cccs1)Nc1ccc2c(c1)OCCO2 | inconclusive: 3.98 µM [activator, partial curve] | –
62 | C=CCn1c(SCC(=O)Nc2ccc3c(c2)CCC3)nnc1-c1cccs1 | inconclusive: 3.98 µM [activator, single point] | –
63 | C/C(=N\NC(=O)c1cccc(N/N=C(\C)c2ccco2)c1)c1ccco1 | inconclusive: 3.55 µM [activator, partial curve] | –
64 | CC(C)(C)N(NS(=O)(=O)c1ccc(F)cc1)c1ccccc1 | – | inactive: -0.147%
65 | COc1cc(S(=O)(=O)N2CCOCC2)ccc1NC(=O)COC(=O)C12CC3CC(CC(C3)C1)C2 | – | inactive: -1.91%
66 | Cc1ccc(C(=O)/C=C\NCc2ccccc2)cc1 | inconclusive: 5.62 µM [activator, single point] | –
67 | CCOc1ccc(NC(=O)c2ccc(CSc3nnc(C)s3)cc2)cc1 | inconclusive: 2.82 µM [activator, partial curve] | –
68 | Cc1ccc(C(=O)Nc2cc3ccccc3oc2=O)cc1 | inconclusive: 0.0708 µM [activator, partial curve] | –
69 | c1ccc(-c2nc3c(ccc4ccccc43)[nH]2)nc1 | inconclusive: 2 µM [activator, partial curve] | –
70 | CCOc1ccc(C(=O)N2CCc3ccccc32)cc1 | active: 0.891 µM | –
71 | COc1ccc(-c2cn3cc(Cl)ccc3n2)cc1OC | inconclusive: 3.16 µM [activator, partial curve] | –
72 | CCN(CC)c1ccc(C=N/C(C#N)=C(\N)C#N)cc1 | inconclusive: 2 µM [activator, partial curve] | –
73 | Brc1cccc(-c2n[nH]c(-c3ccccc3)n2)c1 | active: 3.55 µM | –
74 | O=C(Nc1nccs1)c1ccccn1 | active: 3.16 µM | –
75 | O=C(C[N+]1(CC#Cc2ccccc2)CCCCC1)c1ccccc1 | inconclusive: 0.794 µM [activator, partial curve] | –
